Some of the results follow.

B1: chr2:205797254:205797461:+|3pUTR|ENSG00000118257|msi1|total|mutant (ssRNA)
RNA: GGGAGUUCUACAGUCCGACGAUCUCACCCUCCCAUGAUGCGCAGUGUUCAGAAAGCUGGUAAGUCCCCGGGAUUUCCAGAAGCCGCCUGCAGAAGAAGGUAAGUUUGAAAGCCACUCCAGGGGUCCUGAUGCUGUCAUGCUCACAACAGAGGAUUGAGCAUCA
B2: chr11:10770493:10770605:+|CDS|ENSG00000198730|unk|FALSE|unique (ssRNA)
RNA: GGGAGUUCUACAGUCCGACGAUCACAUGUGGCACCCAGUGAUACAGUUCUUAUGUUUAAUGUGGCCUUGGUCCUGCAAAGAUUAGCUACCUCUGUCCUGAAAGAUGAAAAAAGUAAUCUGAAGGAAGUACUUAAUGCUGUGAACAACAGAGGAUUGAGCAUCA
B3: chr13:32775312:32775413:+|3pUTR|ENSG00000083642|unk|FALSE|unique (ssRNA)
RNA: GGGAGUUCUACAGUCCGACGAUCGAAACUUGUAAAUAUCUUUUUUCUUUUUUUUAAUGUUUCUGAUUUCUGAAGUGCUUGUAUAGCUUUUAUCUGCGGCUUUAAACUGACAGUACCCGACUGUUUAUUGGAUCUAUUGAUUUGCAACAGAGGAUUGAGCAUCA
B4: chr7:20413385:20413486:+|3pUTR|ENSG00000105855|msi1|total|mutant (ssRNA)
RNA: GGGAGUUCUACAGUCCGACGAUCACUGAAGAUAUCUUUAUGCAAGACAAGAGUCAGCCAUCAGACACUGAAAUAUAUUAUGACCGAUUAUGAAGAAUUUUCUCUGCCGAAUUAUAUUCUUCCUGGAACCUGGCCGAGCCGAUUCAACAGAGGAUUGAGCAUCA
B5: chr19:54333184:54333571:-|three_prime_utr|ENSG00000239961|control|control|control (ssRNA)
RNA: GGGAGUUCUACAGUCCGACGAUCGCUGAGAAUAUCAAGGGGAAGAAGCAUGGGUCAGGUGCAGGAAGAUGUCUGGGUGUCUGUAGAAGAUGCUUCCUCCAUUAAACUGUGGUGCUUUCCUCCUCAUUGUCGACUCUCCUUGACCAACAGAGGAUUGAGCAUCA
B6: ENSG00000198589:be:win_7751|CDS|ENSG00000198589|bound_else_gene|NA|bound_elsewhere_windowed (ssRNA)
RNA: GGGAGUUCUACAGUCCGACGAUCAAGUGCAUUCCCAGUGCUUUGUCAUCACUUCAGACAACCGCUAUAUUCUCGUCUGUGGCUUCUGGGAUAAAAGUUUCAGAGUCUAUUCUACAGACACAGGAAGAUUGAUCCAAGUGGUGUCAACAGAGGAUUGAGCAUCA

For the assay, the target named is T1, UNK ZnF1-6 (called full-length) (human, UniProt Q9C0B0 30-357).
T1 sequence: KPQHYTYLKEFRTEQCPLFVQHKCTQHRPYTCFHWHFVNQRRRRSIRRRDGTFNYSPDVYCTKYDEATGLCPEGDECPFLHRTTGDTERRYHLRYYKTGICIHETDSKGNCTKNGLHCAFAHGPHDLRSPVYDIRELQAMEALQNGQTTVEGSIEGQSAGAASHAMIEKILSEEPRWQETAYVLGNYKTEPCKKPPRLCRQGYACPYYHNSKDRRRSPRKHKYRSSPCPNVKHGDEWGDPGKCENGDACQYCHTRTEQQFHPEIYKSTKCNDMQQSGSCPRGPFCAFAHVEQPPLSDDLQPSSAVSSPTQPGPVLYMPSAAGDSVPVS
The assay can be described thus: nsRBNS (natural sequence RNA bind-n-seq); RBNS binding buffer (assumed for nsRBNS): 25 mM Tris pH 7.5, 150 mM KCl, 3 mM MgCl2, 0.01% Triton X-100, 500 ug/ml BSA, 20 U/ml SUPERase-In, 4 C; UNK is unkempt and MSI1 is Musashi-1; names of the RNAs are library labels; protein concentration not given here; high values mean tight binding.
In turn, B1 registered a binding signal of 0.712 enrichment R. The figure for B2 is 0.82 enrichment R; for B3 it is 1.27 enrichment R.

B4 gave a binding signal of 0.292 enrichment R. The figure for B5 is 0.755 enrichment R. In turn, B6 gave a binding signal of 0.285 enrichment R.
